Assay results reported in patent US6346539B1, “Treatment of skin conditions” (BTG International Limited, priority 1998, dated 2002).
Where “and” joins values, the source holds several entries; their conditions need not be identical. Equal entries are not always repeated. At least one read-out could not be matched to a standard name with certainty.

Tested on: mouse melan-a cells
Experiment: Melanocyte proliferant activity of piperine derivatives, SRB assay, 4 days, 10% FBS
Format: cell-based
Details: for Relative activity to piperine: (A-100) compound/(A-100) piperine, 10 μM; for Percentage cell growth (Repeated experiments): single concentration (10 μM), melan-a, ± SEM
Description: The plates were incubated at 37° C. in a 10% CO2, 90% air humidified atmosphere for the stated length of time. At the end of the incubation, an SRB assay was performed. Briefly, cells attached to the bottom of the plate were fixed by addition of cold trichloroacetic acid (TCA, 4° C., Aldrich, Dorset, UK) on the top of the growth medium (final TCA 20% w/v). The plate was placed at 4° C. for 1 hour before being gently washed five times with tap water. It was allowed to dry in air, or aided with a hair dryer to speed up the drying process, then 50 μl of 4% w/v SRB dissolved in 1% acetic acid in water was added to each well for 30 min. At the end of the staining period, unbound SRB was removed by washing 4 times with 1% acetic acid. The plate was air dried again, and 150 μl of 10 mM aqueous Tris base (Sigma-Aldrich Co. Ltd, Irvine, UK) was added into each well to solubilize the cell-bound dye.
Various piperine derivatives of formula (1) were synthesised and tested for melanocyte (mouse melan-a) proliferant activity in-vitro. Cells we re incubated with the test compound for 4 days, as previously for the mouse cells but with 10% FBS, after which the sulphorhodamine-B (SRB) assay was performed to determnine cell number SRB uptake was measured as optical density at 550 nm. The control assay was carried out on cells incubated without test compound. There were 2 or 3 series of experiments, each of which consisted of six replcate experiments.
Percentage cell growth was obtained with a given compound calculated as (optical density in the presence of the compound/control optical density)×100.
Melan-a cell proliferant activity for tested compounds was compared with that obtained with piperine. […] All figures are given with Standard Error of the Mean.

Row | Structure (SMILES) | Relative activity to piperine | Percentage cell growth (Repeated experiments)
1 | O=C(/C=C/C=C/c1ccc2c(c1)OCO2)N1CCCC1 [RV-A01, 5-E,E-piperinoylpyrrolidine] | 1.03 and 1.01 | 202 ± 84%
2 | O=C(/C=C/C=C/c1ccc2c(c1)OCO2)NCc1ccc2c(c1)OCO2 [RV-A04, 5-E,E-piperinoylpiperinolymine] | – | 149 ± 47% and 119 ± 27% and 147 ± 22%
3 | CCCCCCNC(=O)/C=C/C=C/c1ccc2c(c1)OCO2 [RV-A05, 5-E,E-piperinoylhexylamine] | 0.93 and 0.57 | 166 ± 35% and 140 ± 17%
4 | CC(C)CNC(=O)/C=C/C=C/c1ccc2c(c1)OCO2 [RV-A06, Piperlonguminine] | – | 158 ± 24% and 156 ± 40%
5 | COC(=O)/C=C/C=C/c1ccc2c(c1)OCO2 [RV-AB1, 5-E,E-piperinic Acid Methyl Ester] | 0.57 and 0.59 and 0.93 | 163 ± 38% and 141 ± 18% and 151 ± 7%
6 | CCOC(=O)/C=C/C=C/c1ccc2c(c1)OCO2 [RV-AB2, 5-E,E-piperinic Acid Ethyl Ester] | – | 22 ± 0.4%
7 | O=C(/C=C/c1ccc2c(c1)OCO2)N1CCCCC1 [RV-B01, 1-(3-trans-benzo-1,3-dioxol-5-ylacryloyl)piperidine] | 0.88 and 0.52 and 0.97 | 171 ± 33% and 148 ± 20% and 152 ± 22%
8 | O=C(/C=C/c1ccc2c(c1)OCO2)N1CCCC1 [RV-B02, 1-(3-trans-benzo-1,3-dioxol-5-ylacryloyl)pyrrolidine] | – | 154 ± 33% and 135 ± 4%
9 | O=C(/C=C/c1ccc2c(c1)OCO2)N1CCOCC1 [RV-B03, 1-(3-trans-benzo-1,3-dioxol-5-ylacryloyl)morpholine] | – | 116 ± 17%
10 | COC(=O)/C=C/c1ccc2c(c1)OCO2 [RV-BB1, 3-trans-benzo-1,3-dioxol-5-ylacrylic acid methyl ester] | 0.44 and 0.41 and 0.39 | 149 ± 27% and 129 ± 15% and 121 ± 12%
11 | O=C(CCCCc1ccc2c(c1)OCO2)N1CCCCC1 [RV-C02, Tetrahydropiperine] | – | 169 ± 29% and 195 ± 89%
12 | O=C(CCc1ccc2c(c1)OCO2)N1CCCCC1 [RV-C03, 3-benzo-1,3-dioxol-5-ylpropionic Acid Piperidide] | – | 113 ± 2%
13 | COc1cccc(/C=C/C(=O)N2CCCCC2)c1 [RV-G02, 1-(3-methoxy-cinnamoyl)piperidine] | – | 119 ± 18% and 87 ± 17%
14 | COc1ccc(/C=C/C(=O)N2CCCCC2)cc1 [RV-G03, 1-(4-methoxy-cinnamoyl)piperidine] | 0.29 and 0.30 | 122 ± 8%
